# Data as given in the supplement of paper PMC8728848.
# Some of the results follow.
# B1: chitinase 3-like protein 2 (Homo sapiens) (protein)
# chain: YKLVCYFTQWSQDRQEPGKFTPENIDPFLCSHLIYSFASIENNKVIIKDKSEVMLYQTINSLKTKNPKLKILLSIGGYLFGSKGFHPMVDSSTSRLEFINSIILFLRNHNFDGLDVSWIYPDQKENTHFTVLIHELAEAFQKDFTKSTKERLLLTAGVSAGRQMIDNSYQVEKLAKDLDFINLLSFDFHGSWEKPLITGHNSPLSKGWQDRGPSSYYNVEYAVGYWIHKGMPSEKVVMGIPTYGHSFTLASAETTVGAPASGPGAAGPITESSGFLAYYEICQFLKGAKITRLQDQQVPYAVKGNQWVGYDDVKSMETKVQFLKNLNLGGAMIWSIDMDDFTGKSCNQGPYPLVQAVKRSLGSL
# Key:
# Test in all cases: glycan array binding signal (z-score within array); higher = stronger binding
# Conditions in all cases: glycan notation: IUPAC condensed, linker removed
# [1] = biological target: Fuc(a1-2)Gal
# Outline: (§1)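 Negative Z-scores can be read as non-binding. The Z-score is calculated within each array and then averaged across arrays of one protein sequence at different concentrations or buffers and across linkers. Arrays, 3228 in all, were curated from the Consortium for Functional Glycomics database and kept only where the protein sequence was available.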
# [2] = biological target: Fuc(a1-2)Gal(b1-3)GalNAc
# Outline: as §1
# [3] = biological target: Fuc(a1-2)Gal(b1-3)GalNAc(b1-3)Gal
# Outline: as §1
# [4] = biological target: Fuc(a1-2)Gal(b1-3)GalNAc(b1-3)Gal(a1-4)Gal(b1-4)Glc
# Outline: as §1
# [5] = biological target: Fuc(a1-2)Gal(b1-3)GalNAc(b1-3)Gal(b1-4)Glc
# Outline: as §1
# [6] = biological target: Fuc(a1-2)Gal(b1-3)GalNAc(b1-4)[Neu5Ac(a2-3)]Gal(b1-4)Glc
# Outline: as §1
# [7] = biological target: Fuc(a1-2)Gal(b1-3)[Fuc(a1-4)]GlcNAc
# Outline: as §1
# [8] = biological target: Fuc(a1-2)Gal(b1-4)Glc
# Outline: as §1
# [9] = biological target: Fuc(a1-2)Gal(b1-4)GlcNAc
# Outline: as §1
# [10] = biological target: Fuc(a1-2)Gal(b1-4)GlcNAc(b1-3)Gal(b1-4)GlcNAc
# Outline: as §1
# [11] = biological target: Fuc(a1-2)Gal(b1-4)GlcNAc(b1-3)Gal(b1-4)GlcNAc(b1-3)Gal(b1-4)GlcNAc
# Outline: as §1
# [12] = biological target: Fuc(a1-2)Gal(b1-4)[Fuc(a1-3)]GalNAc(b1-3)Gal(b1-4)[Fuc(a1-3)]GlcNAc
# Outline: as §1
# [13] = biological target: Fuc(a1-2)Gal(b1-4)[Fuc(a1-3)]GalNAc(b1-3)Gal(b1-4)[Fuc(a1-3)]GlcNAc(b1-3)Gal(b1-4)[Fuc(a1-3)]GalNAc
# Outline: as §1
# [14] = biological target: Fuc(a1-2)Gal(b1-4)[Fuc(a1-3)]GlcNAc
# Outline: as §1
# [15] = biological target: Fuc(a1-2)GlcNAc
# Outline: as §1
# [16] = biological target: Fuc(a1-2)[Gal(a1-3)]Gal
# Outline: as §1
# [17] = biological target: Fuc(a1-2)[Gal(a1-3)]Gal(b1-3)GlcNAc
# Outline: as §1
# [18] = biological target: Fuc(a1-2)[Gal(a1-3)]Gal(b1-4)Glc
# Outline: as §1
# [19] = biological target: Fuc(a1-2)[Gal(a1-3)]Gal(b1-4)GlcNAc
# Outline: as §1
# [20] = biological target: Fuc(a1-2)[Gal(a1-3)]Gal(b1-4)[Fuc(a1-3)]GlcNAc
# Outline: as §1
# [21] = biological target: Fuc(a1-2)[Gal(a1-4)]Gal(b1-4)GalNAc
# Outline: as §1
# [22] = biological target: Fuc(a1-2)[GalNAc(a1-3)]Gal
# Outline: as §1
# [23] = biological target: Fuc(a1-2)[GalNAc(a1-3)]Gal(b1-3)GlcNAc
# Outline: as §1
# [24] = biological target: Fuc(a1-2)[GalNAc(a1-3)]Gal(b1-4)Glc
# Outline: as §1
# [25] = biological target: Fuc(a1-2)[GalNAc(a1-3)]Gal(b1-4)GlcNAc
# Outline: as §1
# [26] = biological target: Fuc(a1-2)[GalNAc(a1-3)]Gal(b1-4)[Fuc(a1-3)]GlcNAc
# Outline: as §1
# [27] = biological target: Fuc(a1-2)[GalNAc(a1-4)]Gal(b1-4)GlcNAc
# Outline: as §1
# [28] = biological target: Fuc(a1-3)GlcNAc
# Outline: as §1
# [29] = biological target: Fuc(a1-3)[Gal(b1-4)]GlcNAc
# Outline: as §1
# [30] = biological target: Fuc(a1-3)[Gal(b1-4)]GlcNAc(b1-4)Gal(b1-4)[Fuc(a1-3)]GlcNAc
# Outline: as §1
binder,measurement,setting,value
B1,glycan array binding signal (z-score),[1],-0.134
same,glycan array binding signal (z-score),[2],-0.144
same,glycan array binding signal (z-score),[3],-0.164
same,glycan array binding signal (z-score),[4],-0.077
same,glycan array binding signal (z-score),[5],-0.251
same,glycan array binding signal (z-score),[6],-0.149
same,glycan array binding signal (z-score),[7],-0.208
same,glycan array binding signal (z-score),[8],-0.212
same,glycan array binding signal (z-score),[9],-0.144
same,glycan array binding signal (z-score),[10],-0.221
same,glycan array binding signal (z-score),[11],0.12
same,glycan array binding signal (z-score),[12],-0.22
same,glycan array binding signal (z-score),[13],0.268
same,glycan array binding signal (z-score),[14],-0.169
same,glycan array binding signal (z-score),[15],-0.243
same,glycan array binding signal (z-score),[16],-0.136
same,glycan array binding signal (z-score),[17],-0.222
same,glycan array binding signal (z-score),[18],-0.25
same,glycan array binding signal (z-score),[19],-0.133
same,glycan array binding signal (z-score),[20],-0.231
same,glycan array binding signal (z-score),[21],-0.207
same,glycan array binding signal (z-score),[22],-0.196
same,glycan array binding signal (z-score),[23],-0.162
same,glycan array binding signal (z-score),[24],-0.243
same,glycan array binding signal (z-score),[25],-0.198
same,glycan array binding signal (z-score),[26],-0.03
same,glycan array binding signal (z-score),[27],-0.205
same,glycan array binding signal (z-score),[28],-0.246
same,glycan array binding signal (z-score),[29],-0.237
same,glycan array binding signal (z-score),[30],-0.222
